{"source": "the supplement of paper PMC8728848", "binders": {"B1": {"name": "rAAL (Agrocybe aegerita), Q6WY08 (protein)", "chain": "MQGVNIYNISAGTSVDLAAPVTTGDIVTFFSSALNLNAGAGNPNNTTLNLFAENGAYLLHIAFRLQENVIIFNSRQPDGPWLVEQAVSDVANQFAGIDGKAMVTVFDHGDKYQVVINEKTVIQYTKQISGLTLSLSYNATEETSIFSTVVEAVTYTGLALEHHHHHH"}}, "assay_in_all_cases": "glycan array binding signal (z-score within array); higher = stronger binding", "conditions_in_all_cases": "glycan notation: IUPAC condensed, linker removed; mutation: R85A", "key": {"[1]": {"target": "Gal3S(b1-4)[Fuc(a1-3)]Glc", "method_in_brief": "(§1)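 The Consortium for Functional Glycomics database supplied 3228 glycan arrays, of which those lacking an available protein sequence were dropped. The binding signal, a within-array Z-score, was averaged across arrays of the same protein sequence and across linkers. Negative scores can be read as non-binding.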"}, "[2]": {"target": "Gal3S(b1-4)[Fuc(a1-3)]Glc6S", "method_in_brief": "as §1"}, "Gal3S4S(b1-4)GlcNAc": {"target": "Gal3S4S(b1-4)GlcNAc", "method_in_brief": "as §1"}, "Gal3S6S(b1-4)GlcNAc": {"target": "Gal3S6S(b1-4)GlcNAc", "method_in_brief": "as §1"}, "Gal3S6S(b1-4)GlcNAc6S": {"target": "Gal3S6S(b1-4)GlcNAc6S", "method_in_brief": "as §1"}, "Gal4S(b1-4)GlcNAc": {"target": "Gal4S(b1-4)GlcNAc", "method_in_brief": "as §1"}, "Gal4S6S(b1-4)GlcNAc": {"target": "Gal4S6S(b1-4)GlcNAc", "method_in_brief": "as §1"}, "Gal6S(b1-4)Glc": {"target": "Gal6S(b1-4)Glc", "method_in_brief": "as §1"}, "Gal6S(b1-4)Glc6S": {"target": "Gal6S(b1-4)Glc6S", "method_in_brief": "as §1"}, "Gal6S(b1-4)GlcNAc": {"target": "Gal6S(b1-4)GlcNAc", "method_in_brief": "as §1"}, "Gal6S(b1-4)GlcNAc6S": {"target": "Gal6S(b1-4)GlcNAc6S", "method_in_brief": "as §1"}, "GalNAc(a1-3)Gal": {"target": "GalNAc(a1-3)Gal", "method_in_brief": "as §1"}, "GalNAc(a1-3)GalNAc": {"target": "GalNAc(a1-3)GalNAc", "method_in_brief": "as §1"}, "[3]": {"target": "GalNAc(a1-3)GalNAc(a1-3)Gal(a1-4)Gal(b1-4)GlcNAc", "method_in_brief": "as §1"}, "GalNAc(b1-3)Gal": {"target": "GalNAc(b1-3)Gal", "method_in_brief": "as §1"}, "[4]": {"target": "GalNAc(b1-3)Gal(a1-4)Gal(b1-4)GlcNAc", "method_in_brief": "as §1"}, "[5]": {"target": "GalNAc(b1-3)Gal(a1-4)Gal(b1-4)GlcNAc(b1-3)Gal(b1-4)Glc", "method_in_brief": "as §1"}, "[6]": {"target": "GalNAc(b1-3)Gal(a1-6)Gal(b1-4)Glc", "method_in_brief": "as §1"}, "GalNAc(b1-3)GalNAc": {"target": "GalNAc(b1-3)GalNAc", "method_in_brief": "as §1"}, "GalNAc(b1-4)GlcNAc": {"target": "GalNAc(b1-4)GlcNAc", "method_in_brief": "as §1"}, "[7]": {"target": "GalNAc(b1-4)GlcNAc(b1-2)Man(a1-3)[GalNAc(b1-4)GlcNAc(b1-2)Man(a1-6)]Man(b1-4)GlcNAc(b1-4)GlcNAc", "method_in_brief": "as §1"}, "Glc(a1-4)Glc": {"target": "Glc(a1-4)Glc", "method_in_brief": "as §1"}, "Glc(a1-6)Glc(a1-6)Glc": {"target": "Glc(a1-6)Glc(a1-6)Glc", "method_in_brief": "as §1"}, "Glc(b1-4)Glc": {"target": "Glc(b1-4)Glc", "method_in_brief": "as §1"}, "Glc(b1-6)Glc": {"target": "Glc(b1-6)Glc", "method_in_brief": "as §1"}, "GlcA(b1-3)Gal": {"target": "GlcA(b1-3)Gal", "method_in_brief": "as §1"}, "GlcA(b1-3)GlcNAc": {"target": "GlcA(b1-3)GlcNAc", "method_in_brief": "as §1"}, "GlcA(b1-6)Gal": {"target": "GlcA(b1-6)Gal", "method_in_brief": "as §1"}, "[8]": {"target": "GlcNAc(a1-3)Gal(b1-4)GlcNAc", "method_in_brief": "as §1"}, "[9]": {"target": "GlcNAc(a1-4)Gal(b1-3)GlcNAc", "method_in_brief": "as §1"}, "[10]": {"target": "GlcNAc(a1-4)Gal(b1-4)GalNAc", "method_in_brief": "as §1"}, "[11]": {"target": "GlcNAc(a1-4)Gal(b1-4)GlcNAc", "method_in_brief": "as §1"}, "[12]": {"target": "GlcNAc(a1-4)Gal(b1-4)GlcNAc(b1-3)Gal(b1-4)Glc", "method_in_brief": "as §1"}, "[13]": {"target": "GlcNAc(a1-4)Gal(b1-4)GlcNAc(b1-3)Gal(b1-4)GlcNAc", "method_in_brief": "as §1"}, "[14]": {"target": "GlcNAc(a1-4)Gal(b1-4)GlcNAc(b1-3)Gal(b1-4)GlcNAc(b1-3)Gal(b1-4)GlcNAc", "method_in_brief": "as §1"}, "[15]": {"target": "GlcNAc(a1-4)Gal(b1-4)GlcNAc(b1-3)Gal(b1-4)[Fuc(a1-3)]GlcNAc(b1-3)Gal(b1-4)[Fuc(a1-3)]GlcNAc", "method_in_brief": "as §1"}, "[16]": {"target": "GlcNAc(a1-6)Gal(b1-4)GlcNAc", "method_in_brief": "as §1"}, "[17]": {"target": "GlcNAc(b1-2)Gal(b1-3)GalNAc", "method_in_brief": "as §1"}, "[18]": {"target": "GlcNAc(b1-2)Man(a1-3)[GlcNAc(b1-2)Man(a1-6)]Man(b1-4)GlcNAc(b1-4)GlcNAc", "method_in_brief": "as §1"}, "[19]": {"target": "GlcNAc(b1-2)Man(a1-3)[GlcNAc(b1-2)Man(a1-6)]Man(b1-4)GlcNAc(b1-4)[Fuc(a1-6)]GlcNAc", "method_in_brief": "as §1"}, "[20]": {"target": "GlcNAc(b1-2)[GlcNAc(b1-4)]Man(a1-3)[GlcNAc(b1-2)Man(a1-6)]Man(b1-4)GlcNAc(b1-4)GlcNAc", "method_in_brief": "as §1"}, "GlcNAc(b1-3)Gal": {"target": "GlcNAc(b1-3)Gal", "method_in_brief": "as §1"}, "[21]": {"target": "GlcNAc(b1-3)Gal(b1-3)GalNAc", "method_in_brief": "as §1"}, "GlcNAc(b1-3)Gal(b1-4)Glc": {"target": "GlcNAc(b1-3)Gal(b1-4)Glc", "method_in_brief": "as §1"}, "[22]": {"target": "GlcNAc(b1-3)Gal(b1-4)GlcNAc", "method_in_brief": "as §1"}}, "note": "The other results are listed elsewhere or left out."}
{"binder": "B1", "values": [{"measurement": "glycan array binding signal (z-score)", "setting": "[1]", "result": -0.13}, {"measurement": "glycan array binding signal (z-score)", "setting": "[2]", "result": -0.093}, {"measurement": "glycan array binding signal (z-score)", "setting": "Gal3S4S(b1-4)GlcNAc", "result": -0.131}, {"measurement": "glycan array binding signal (z-score)", "setting": "Gal3S6S(b1-4)GlcNAc", "result": -0.136}, {"measurement": "glycan array binding signal (z-score)", "setting": "Gal3S6S(b1-4)GlcNAc6S", "result": -0.116}, {"measurement": "glycan array binding signal (z-score)", "setting": "Gal4S(b1-4)GlcNAc", "result": -0.121}, {"measurement": "glycan array binding signal (z-score)", "setting": "Gal4S6S(b1-4)GlcNAc", "result": -0.136}, {"measurement": "glycan array binding signal (z-score)", "setting": "Gal6S(b1-4)Glc", "result": -0.134}, {"measurement": "glycan array binding signal (z-score)", "setting": "Gal6S(b1-4)Glc6S", "result": -0.121}, {"measurement": "glycan array binding signal (z-score)", "setting": "Gal6S(b1-4)GlcNAc", "result": -0.127}, {"measurement": "glycan array binding signal (z-score)", "setting": "Gal6S(b1-4)GlcNAc6S", "result": -0.131}, {"measurement": "glycan array binding signal (z-score)", "setting": "GalNAc(a1-3)Gal", "result": -0.138}, {"measurement": "glycan array binding signal (z-score)", "setting": "GalNAc(a1-3)GalNAc", "result": -0.118}, {"measurement": "glycan array binding signal (z-score)", "setting": "[3]", "result": -0.134}, {"measurement": "glycan array binding signal (z-score)", "setting": "GalNAc(b1-3)Gal", "result": -0.125}, {"measurement": "glycan array binding signal (z-score)", "setting": "[4]", "result": -0.14}, {"measurement": "glycan array binding signal (z-score)", "setting": "[5]", "result": -0.127}, {"measurement": "glycan array binding signal (z-score)", "setting": "[6]", "result": -0.141}, {"measurement": "glycan array binding signal (z-score)", "setting": "GalNAc(b1-3)GalNAc", "result": -0.126}, {"measurement": "glycan array binding signal (z-score)", "setting": "GalNAc(b1-4)GlcNAc", "result": -0.122}, {"measurement": "glycan array binding signal (z-score)", "setting": "[7]", "result": -0.079}, {"measurement": "glycan array binding signal (z-score)", "setting": "Glc(a1-4)Glc", "result": -0.129}, {"measurement": "glycan array binding signal (z-score)", "setting": "Glc(a1-6)Glc(a1-6)Glc", "result": -0.136}, {"measurement": "glycan array binding signal (z-score)", "setting": "Glc(b1-4)Glc", "result": -0.135}, {"measurement": "glycan array binding signal (z-score)", "setting": "Glc(b1-6)Glc", "result": -0.133}, {"measurement": "glycan array binding signal (z-score)", "setting": "GlcA(b1-3)Gal", "result": 0.167}, {"measurement": "glycan array binding signal (z-score)", "setting": "GlcA(b1-3)GlcNAc", "result": -0.111}, {"measurement": "glycan array binding signal (z-score)", "setting": "GlcA(b1-6)Gal", "result": -0.133}, {"measurement": "glycan array binding signal (z-score)", "setting": "[8]", "result": -0.133}, {"measurement": "glycan array binding signal (z-score)", "setting": "[9]", "result": -0.13}, {"measurement": "glycan array binding signal (z-score)", "setting": "[10]", "result": -0.136}, {"measurement": "glycan array binding signal (z-score)", "setting": "[11]", "result": -0.121}, {"measurement": "glycan array binding signal (z-score)", "setting": "[12]", "result": -0.136}, {"measurement": "glycan array binding signal (z-score)", "setting": "[13]", "result": -0.132}, {"measurement": "glycan array binding signal (z-score)", "setting": "[14]", "result": -0.137}, {"measurement": "glycan array binding signal (z-score)", "setting": "[15]", "result": -0.067}, {"measurement": "glycan array binding signal (z-score)", "setting": "[16]", "result": -0.133}, {"measurement": "glycan array binding signal (z-score)", "setting": "[17]", "result": -0.139}, {"measurement": "glycan array binding signal (z-score)", "setting": "[18]", "result": -0.127}, {"measurement": "glycan array binding signal (z-score)", "setting": "[19]", "result": -0.112}, {"measurement": "glycan array binding signal (z-score)", "setting": "[20]", "result": -0.13}, {"measurement": "glycan array binding signal (z-score)", "setting": "GlcNAc(b1-3)Gal", "result": -0.126}, {"measurement": "glycan array binding signal (z-score)", "setting": "[21]", "result": -0.113}, {"measurement": "glycan array binding signal (z-score)", "setting": "GlcNAc(b1-3)Gal(b1-4)Glc", "result": -0.128}, {"measurement": "glycan array binding signal (z-score)", "setting": "[22]", "result": -0.141}]}
